The antibiotic and cytotoxicity screens of Wong et al. (2023)
Some of the results follow.

How the values were obtained:
[1] = system: HSkMC (human skeletal muscle cells); test: cytotoxicity call (relative viability < 0.9); details: 10 µM
[2] = system: HepG2; test: cytotoxicity call (relative viability < 0.9); details: 10 µM
[3] = system: S. aureus RN4220; test: growth inhibition call (relative growth <= 0.2); details: 50 µM

Which cytotoxicity call [1] does the source give for `CN1C(=O)c2cc(NC(=O)c3cnccn3)ccc2OC[C@H]2O[C@H](CC(=O)N[C@@H]3CCN(Cc4ccccc4)C3)CC[C@@H]21` here?
Its cytotoxicity call is “inactive”.

And the cytotoxicity call [2]?
Its cytotoxicity call is “inactive”.

What about the growth inhibition call [3] of the same compound?
Its growth inhibition call is “inactive”.

How did the cytotoxicity call [1] turn out when `COCC(=O)N1C[C@H](C)[C@H](OC)CN(C)C(=O)c2cc(NC(=O)c3ccc(F)cc3)ccc2OC[C@H]1C` was run?
The cytotoxicity call was “inactive”.

What about the cytotoxicity call [2] of the same compound?
Its cytotoxicity call is “inactive”.

What about the growth inhibition call [3] of the same compound?
Its growth inhibition call is “inactive”.

Which cytotoxicity call [1] does the source give for `Cc1ccc(S(=O)(=O)Nc2ccc3c(c2)CC(=O)N([C@H](C)CO)C[C@@H](C)[C@H](CN(C)Cc2ccc(Oc4ccccc4)cc2)O3)cc1` here?
The cytotoxicity call was “active”.

What about the cytotoxicity call [2] of the same compound?
The cytotoxicity call was “inactive”.

What about the growth inhibition call [3] of the same compound?
Its growth inhibition call is “inactive”.

How did the cytotoxicity call [1] turn out when `C[C@@H]1CCCCO[C@@H](CN(C)C(=O)c2ccccc2)[C@@H](C)CN([C@@H](C)CO)C(=O)c2cc(NC(=O)Nc3ccccc3)ccc2O1` was run?
Its cytotoxicity call is “inactive”.

And the cytotoxicity call [2]?
Its cytotoxicity call is “inactive”.

And the growth inhibition call [3]?
Its growth inhibition call is “inactive”.

Which results are given for `C[C@@H]1CN([C@H](C)CO)S(=O)(=O)c2ccc(C3=CCCC3)cc2O[C@H]1CN(C)C(=O)Cc1ccncc1`?
cytotoxicity call [1]: inactive; cytotoxicity call [2]: inactive; growth inhibition call [3]: inactive

With `C[C@@H]1CCCCO[C@@H](CN(C)C(=O)NC2CCCCC2)[C@@H](C)CN([C@@H](C)CO)C(=O)c2cc(NC(=O)CCC(F)(F)F)ccc2O1` as the compound, how does the cytotoxicity call [1] read?
Its cytotoxicity call is “inactive”.

And the cytotoxicity call [2]?
Its cytotoxicity call is “inactive”.

And the growth inhibition call [3]?
The growth inhibition call was “inactive”.

Which cytotoxicity call [1] does the source give for `C[C@H](CO)N1C[C@H](C)[C@H](CN(C)S(=O)(=O)c2cccs2)Oc2c(NS(=O)(=O)c3cn(C)cn3)cccc2C1=O` here?
Its cytotoxicity call is “inactive”.

And the cytotoxicity call [2]?
The cytotoxicity call was “inactive”.

What about the growth inhibition call [3] of the same compound?
The growth inhibition call was “inactive”.

`COc1ccc(NC(=O)Nc2cccc3c2O[C@@H](CN(C)C(=O)Nc2ccc(C(F)(F)F)cc2)[C@@H](C)CN([C@H](C)CO)C3=O)cc1` was tested. Which cytotoxicity call [1] did it give?
Its cytotoxicity call is “inactive”.

And the cytotoxicity call [2]?
The cytotoxicity call was “inactive”.

What about the growth inhibition call [3] of the same compound?
Its growth inhibition call is “inactive”.

For `CO[C@@H]1CN(C)C(=O)c2cc(NC(=O)Nc3ccc4c(c3)OCO4)ccc2OC[C@@H](C)N(C(C)=O)C[C@H]1C`, which cytotoxicity call [1] is on record?
The cytotoxicity call was “inactive”.

And the cytotoxicity call [2]?
The cytotoxicity call was “inactive”.

And the growth inhibition call [3]?
Its growth inhibition call is “inactive”.

For `C[C@H]1CN([C@@H](C)CO)C(=O)c2cccc(NS(C)(=O)=O)c2O[C@H]1CN(C)C(=O)Nc1ccccc1`, which cytotoxicity call [1] is on record?
Its cytotoxicity call is “inactive”.

What about the cytotoxicity call [2] of the same compound?
Its cytotoxicity call is “inactive”.

What about the growth inhibition call [3] of the same compound?
The growth inhibition call was “inactive”.

With `COc1ccc(NC(=O)N(C)C[C@@H]2OCCCC[C@@H](C)Oc3ccc(NC(=O)Nc4ccc(C(F)(F)F)cc4)cc3C(=O)N([C@H](C)CO)C[C@H]2C)cc1` as the compound, how does the cytotoxicity call [1] read?
The cytotoxicity call was “inactive”.

What about the cytotoxicity call [2] of the same compound?
The cytotoxicity call was “inactive”.

And the growth inhibition call [3]?
The growth inhibition call was “inactive”.

`C[C@@H]1CCCCO[C@@H](CN(C)C(=O)Nc2ccc(F)cc2)[C@@H](C)CN([C@H](C)CO)C(=O)c2cc(NS(=O)(=O)c3ccc(Cl)cc3)ccc2O1` was tested. Which cytotoxicity call [1] did it give?
Its cytotoxicity call is “inactive”.

And the cytotoxicity call [2]?
Its cytotoxicity call is “inactive”.

What about the growth inhibition call [3] of the same compound?
The growth inhibition call was “inactive”.

`C[C@H]1CN([C@@H](C)CO)C(=O)Cc2cc(NC(=O)Nc3cccc4ccccc34)ccc2O[C@H]1CN(C)Cc1ccc(-c2ccccc2)cc1` was tested. Which cytotoxicity call [1] did it give?
Its cytotoxicity call is “inactive”.

And the cytotoxicity call [2]?
The cytotoxicity call was “inactive”.

And the growth inhibition call [3]?
Its growth inhibition call is “inactive”.

Which cytotoxicity call [1] does the source give for `C[C@@H]1CN([C@H](C)CO)S(=O)(=O)c2ccc(-c3cccnc3)cc2O[C@H]1CN(C)CC1CCOCC1` here?
The cytotoxicity call was “inactive”.

And the cytotoxicity call [2]?
The cytotoxicity call was “inactive”.

And the growth inhibition call [3]?
Its growth inhibition call is “inactive”.

`COc1cccc(S(=O)(=O)N[C@H]2C=C[C@H](CC(=O)NC3CCC3)O[C@@H]2CO)c1` was tested. Which cytotoxicity call [1] did it give?
The cytotoxicity call was “inactive”.

What about the cytotoxicity call [2] of the same compound?
The cytotoxicity call was “inactive”.

And the growth inhibition call [3]?
Its growth inhibition call is “inactive”.

Which results are given for `CCS(=O)(=O)Nc1ccc2c(c1)C(=O)N(C)[C@H]1CC[C@H](CC(=O)N3CCN(C)CC3)O[C@H]1CO2`?
cytotoxicity call [1]: inactive; cytotoxicity call [2]: inactive; growth inhibition call [3]: inactive

Which cytotoxicity call [1] does the source give for `C[C@@H]1CN([C@@H](C)CO)C(=O)c2cc(C#Cc3ccccc3F)cnc2O[C@@H]1CN(C)C(=O)Cc1ccncc1` here?
The cytotoxicity call was “inactive”.

And the cytotoxicity call [2]?
The cytotoxicity call was “inactive”.

What about the growth inhibition call [3] of the same compound?
Its growth inhibition call is “inactive”.

With `CC(C)CN(C(=O)COC(=O)c1c2c(nc3ccccc13)CCC2)c1c(N)n(Cc2ccccc2)c(=O)[nH]c1=O` as the compound, how does the cytotoxicity call [1] read?
The cytotoxicity call was “inactive”.

And the cytotoxicity call [2]?
The cytotoxicity call was “inactive”.

What about the growth inhibition call [3] of the same compound?
Its growth inhibition call is “inactive”.

With `Cc1ccc(S(=O)(=O)N(C)C[C@H]2OCCCC[C@@H](C)Oc3ccc(NC(=O)Nc4cccc5ccccc45)cc3C(=O)N([C@H](C)CO)C[C@@H]2C)cc1` as the compound, how does the cytotoxicity call [1] read?
Its cytotoxicity call is “inactive”.

And the cytotoxicity call [2]?
Its cytotoxicity call is “inactive”.

What about the growth inhibition call [3] of the same compound?
The growth inhibition call was “inactive”.

`C[C@@H]1CCCCO[C@@H](CN(C)Cc2ccccc2)[C@H](C)CN([C@@H](C)CO)C(=O)c2cc(NC(=O)c3ccccc3)ccc2O1` was tested. Which cytotoxicity call [1] did it give?
Its cytotoxicity call is “inactive”.

And the cytotoxicity call [2]?
The cytotoxicity call was “inactive”.

What about the growth inhibition call [3] of the same compound?
Its growth inhibition call is “inactive”.

What does the source list for `C[C@H]1CN([C@@H](C)CO)C(=O)c2cc(C#CC3CCCCC3)cnc2O[C@H]1CN(C)C(=O)c1ccncc1`?
cytotoxicity call [1]: inactive; cytotoxicity call [2]: inactive; growth inhibition call [3]: inactive

What does the source list for `C[C@@H]1CN([C@@H](C)CO)C(=O)c2cc(C#CC3(O)CCCC3)cnc2O[C@@H]1CN(C)S(=O)(=O)c1ccc(F)cc1`?
cytotoxicity call [1]: inactive; cytotoxicity call [2]: inactive; growth inhibition call [3]: inactive

How did the cytotoxicity call [1] turn out when `C[C@@H]1CCCCO[C@@H](CN(C)S(=O)(=O)c2ccc(Cl)cc2)[C@H](C)CN([C@@H](C)CO)C(=O)c2cc(NC(=O)Nc3ccc(F)cc3)ccc2O1` was run?
The cytotoxicity call was “inactive”.

What about the cytotoxicity call [2] of the same compound?
Its cytotoxicity call is “inactive”.

What about the growth inhibition call [3] of the same compound?
Its growth inhibition call is “inactive”.
